From PMC4453211
These are yes or no findings as the source states them, for the method shown. In cells and extracts the contact can be indirect. Some binding calls cover weakened binding; strength is not graded here. For some of these results: Where a sequence is shown, tags or fusion partners need not be part of it. Each block holds one molecule with its values, some of them ahead of it.

Protein sequences, listed by entry. Tags and fused reporters are not part of them. Lines headed by an entry give the natural chain unless they say otherwise; changes in a name come on top.
UniProt P05556: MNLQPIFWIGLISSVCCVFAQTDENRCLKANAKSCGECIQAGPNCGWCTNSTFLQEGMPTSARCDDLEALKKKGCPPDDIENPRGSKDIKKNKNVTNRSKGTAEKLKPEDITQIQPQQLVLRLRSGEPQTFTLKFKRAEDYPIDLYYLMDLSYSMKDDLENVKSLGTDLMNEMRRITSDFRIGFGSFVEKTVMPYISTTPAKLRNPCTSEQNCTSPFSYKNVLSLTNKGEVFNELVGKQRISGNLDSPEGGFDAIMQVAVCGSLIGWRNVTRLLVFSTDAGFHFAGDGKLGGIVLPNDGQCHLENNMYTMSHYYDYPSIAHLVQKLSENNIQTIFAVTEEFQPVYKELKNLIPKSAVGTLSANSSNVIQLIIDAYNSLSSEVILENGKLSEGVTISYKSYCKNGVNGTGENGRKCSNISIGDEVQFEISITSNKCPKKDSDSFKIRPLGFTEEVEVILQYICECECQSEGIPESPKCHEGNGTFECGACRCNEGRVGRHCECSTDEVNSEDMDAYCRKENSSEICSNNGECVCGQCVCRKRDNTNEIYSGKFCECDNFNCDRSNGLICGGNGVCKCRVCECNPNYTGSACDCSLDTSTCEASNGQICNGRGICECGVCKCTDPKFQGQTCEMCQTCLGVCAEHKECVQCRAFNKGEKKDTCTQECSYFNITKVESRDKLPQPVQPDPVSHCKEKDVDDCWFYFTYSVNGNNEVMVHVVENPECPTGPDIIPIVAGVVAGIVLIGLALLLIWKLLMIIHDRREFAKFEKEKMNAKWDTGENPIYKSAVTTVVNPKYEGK

Columns and labels:
[1] = molecular target: T1, human platelet-type 12-lipoxygenase (human (endogenous in A431)) (UniProt P18054); test: co-IP; A431 cells and A431 12-LOX transfectants, serum-starved, stimulated with anti-β4 mAb 3E1 (5 μg/ml, 5-90 min) or grown on laminin; lysis in 1 % Triton X-100, 0.5 % NP-40, 150 mM NaCl, 10 mM Tris pH 7.4; IP with anti-12-LOX, anti-β1 or anti-β4 antibody and protein G Sepharose at 4 °C; Western blot
T1 sequence: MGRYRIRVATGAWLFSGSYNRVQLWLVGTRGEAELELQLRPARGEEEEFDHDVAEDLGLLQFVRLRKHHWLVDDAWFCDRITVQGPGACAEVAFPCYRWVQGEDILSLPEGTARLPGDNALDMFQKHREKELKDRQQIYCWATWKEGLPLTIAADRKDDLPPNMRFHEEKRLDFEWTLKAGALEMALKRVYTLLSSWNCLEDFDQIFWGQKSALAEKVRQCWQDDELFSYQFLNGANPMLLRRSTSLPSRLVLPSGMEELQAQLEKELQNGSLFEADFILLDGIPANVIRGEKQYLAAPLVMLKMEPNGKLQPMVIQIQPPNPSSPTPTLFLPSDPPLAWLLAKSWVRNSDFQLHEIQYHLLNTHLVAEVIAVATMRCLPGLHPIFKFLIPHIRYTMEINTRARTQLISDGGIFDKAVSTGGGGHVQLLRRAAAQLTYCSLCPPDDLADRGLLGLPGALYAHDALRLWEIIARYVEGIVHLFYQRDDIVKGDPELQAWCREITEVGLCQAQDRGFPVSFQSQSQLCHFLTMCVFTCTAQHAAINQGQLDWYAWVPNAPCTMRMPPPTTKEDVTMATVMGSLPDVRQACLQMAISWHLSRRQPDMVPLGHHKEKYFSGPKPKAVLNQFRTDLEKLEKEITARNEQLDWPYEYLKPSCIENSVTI

[2] = molecular target: full-length, wild-type human integrin β4 subunit (pRC-CMV-β4) (human) (UniProt P16144); test: co-IP; CHO transfectants with β4 constructs alone or with 12-LOX; lysis in 1 % Triton X-100, 0.5 % NP-40, 150 mM NaCl, 10 mM Tris pH 7.4; IP with anti-β4 mAbs (3E1, 439-9B, 450-11A) or anti-12-LOX antibody and protein G Sepharose at 4 °C; Western blot
[3] = molecular target: T2, tail-less, truncated human integrin β4 lacking the cytoplasmic domain (pCMV-β4 Δ854-1752) (human) (UniProt P16144); test: as above
T2 sequence: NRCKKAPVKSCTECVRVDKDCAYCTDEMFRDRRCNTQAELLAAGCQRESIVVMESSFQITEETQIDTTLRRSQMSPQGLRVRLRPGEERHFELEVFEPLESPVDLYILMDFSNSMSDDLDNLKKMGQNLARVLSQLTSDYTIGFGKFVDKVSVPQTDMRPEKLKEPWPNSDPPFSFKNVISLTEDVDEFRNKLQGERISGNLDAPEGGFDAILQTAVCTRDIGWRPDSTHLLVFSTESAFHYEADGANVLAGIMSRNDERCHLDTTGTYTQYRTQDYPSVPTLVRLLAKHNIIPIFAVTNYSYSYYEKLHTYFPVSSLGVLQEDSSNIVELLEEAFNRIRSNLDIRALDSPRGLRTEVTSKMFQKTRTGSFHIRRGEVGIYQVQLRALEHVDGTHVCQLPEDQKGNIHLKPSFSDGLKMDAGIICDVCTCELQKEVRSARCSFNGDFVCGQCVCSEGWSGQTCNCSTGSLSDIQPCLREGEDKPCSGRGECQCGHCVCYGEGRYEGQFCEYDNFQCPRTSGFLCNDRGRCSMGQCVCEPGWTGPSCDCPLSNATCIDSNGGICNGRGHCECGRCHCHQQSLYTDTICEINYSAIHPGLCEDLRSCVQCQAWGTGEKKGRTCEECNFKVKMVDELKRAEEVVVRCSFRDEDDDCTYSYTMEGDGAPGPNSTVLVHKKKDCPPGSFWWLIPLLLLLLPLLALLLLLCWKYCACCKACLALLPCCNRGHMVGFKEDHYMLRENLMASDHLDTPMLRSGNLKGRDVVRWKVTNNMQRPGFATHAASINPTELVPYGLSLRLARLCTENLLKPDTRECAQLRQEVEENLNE

[4] = molecular target: T3, headless, truncated human integrin β4 (pCMV-β4 Δ70-660), extracellular sequences replaced by a c-myc epitope tag (human) (UniProt P16144); test: as above
T3 sequence: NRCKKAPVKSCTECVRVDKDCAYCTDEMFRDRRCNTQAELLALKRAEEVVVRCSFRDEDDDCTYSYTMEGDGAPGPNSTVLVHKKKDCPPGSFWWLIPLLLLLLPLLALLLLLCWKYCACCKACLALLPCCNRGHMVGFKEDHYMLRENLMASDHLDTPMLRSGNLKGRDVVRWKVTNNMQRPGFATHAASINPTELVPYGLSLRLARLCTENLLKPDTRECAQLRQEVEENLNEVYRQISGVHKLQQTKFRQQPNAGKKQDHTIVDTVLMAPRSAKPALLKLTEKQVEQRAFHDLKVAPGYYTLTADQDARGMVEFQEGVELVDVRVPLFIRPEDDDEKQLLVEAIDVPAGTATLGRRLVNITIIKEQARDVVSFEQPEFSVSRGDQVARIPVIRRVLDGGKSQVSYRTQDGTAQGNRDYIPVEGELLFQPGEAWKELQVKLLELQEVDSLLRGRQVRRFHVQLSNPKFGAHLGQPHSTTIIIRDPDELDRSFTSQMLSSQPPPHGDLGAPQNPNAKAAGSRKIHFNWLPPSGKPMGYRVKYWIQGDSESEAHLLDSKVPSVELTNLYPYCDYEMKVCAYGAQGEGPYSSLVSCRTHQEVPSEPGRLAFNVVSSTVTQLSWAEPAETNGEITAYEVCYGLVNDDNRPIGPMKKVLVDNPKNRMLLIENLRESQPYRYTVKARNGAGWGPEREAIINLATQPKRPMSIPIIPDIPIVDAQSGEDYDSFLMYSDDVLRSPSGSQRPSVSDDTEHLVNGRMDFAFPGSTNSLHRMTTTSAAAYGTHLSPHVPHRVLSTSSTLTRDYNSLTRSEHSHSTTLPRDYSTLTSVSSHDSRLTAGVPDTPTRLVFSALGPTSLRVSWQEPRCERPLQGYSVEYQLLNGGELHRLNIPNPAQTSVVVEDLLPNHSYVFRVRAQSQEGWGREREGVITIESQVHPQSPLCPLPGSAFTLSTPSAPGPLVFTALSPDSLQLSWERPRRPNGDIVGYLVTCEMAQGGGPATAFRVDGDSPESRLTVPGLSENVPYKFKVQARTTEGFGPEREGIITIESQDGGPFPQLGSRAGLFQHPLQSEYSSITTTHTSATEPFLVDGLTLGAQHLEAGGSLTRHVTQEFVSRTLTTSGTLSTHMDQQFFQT

binding [1]: no binding
Molecule: integrin β1 subunit (from UniProt P05556 21-798) (receptor)

binding [2]: binds | binding [3]: no binding | binding [4]: binds
B1: human 12-LOX, full-length cDNA, expressed in CHO cells (enzyme, UniProt P18054 1-663)
chain: T1 sequence
